Drawing on the supplement of paper PMC11741623, this text covers yeast fitness gain for 4 molecules.

Assay in all cases: yeast fitness gain over the viral ORF with no human partner (scaled fitness); higher = more likely to interact
One test has as its target SARS-CoV-2 E. As for the experimental part: (§1)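 Split mouse DHFR complementation in pooled diploid yeast: human ORFeome clones carry one fragment and viral ORFs the other; barcoded lineages compete in 1 µg/mL methotrexate and fitness is read by barcode sequencing in up to three cultures.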
The target in the next test is SARS-CoV-2 N. As to the method: as §1
Another test addresses SARS-CoV-2 NSP14. As for the experimental part: as §1
The next test deals with SARS-CoV-2 M. As to the method: as §1
The target in a further test is SARS-CoV-2 NSP1. As for the experimental part:
as §1

A further test has as its target SARS-CoV-2 NSP10. As to the method:
as §1

The next test addresses SARS-CoV-2 NSP12. As to the method: as §1
The target in the next test is SARS-CoV-2 NSP13. As to the method:
as §1

A further test concerns the target SARS-CoV-2 NSP15. As for the experimental part:
as §1

The next test addresses SARS-CoV-2 NSP16. As for the experimental part: as §1
A further test addresses SARS-CoV-2 NSP2. As to the method: as §1
A further test addresses SARS-CoV-2 NSP4. As to the method: as §1
The next test concerns the target SARS-CoV-2 NSP5. As for the experimental part: as §1
In the next test the target is SARS-CoV-2 NSP6. As for the experimental part:
as §1

In the next test the target is SARS-CoV-2 NSP7. As to the method: as §1
In a further test the target is SARS-CoV-2 NSP8. As to the method:
as §1

The next test concerns the target SARS-CoV-2 NSP9. As to the method: as §1
The target in the next test is SARS-CoV-2 ORF10. As for the experimental part: as §1
Another test has as its target SARS-CoV-2 ORF3A. As for the experimental part: as §1
The target in a further test is SARS-CoV-2 ORF3B. As for the experimental part:
as §1

Another test deals with SARS-CoV-2 ORF6. As to the method: as §1
The target of the next test is SARS-CoV-2 ORF7A. As to the method:
as §1

The next test has as its target SARS-CoV-2 ORF7B. As to the method:
as §1

For the next test, the target named is SARS-CoV-2 ORF8. As to the method:
as §1

Another test addresses SARS-CoV-2 ORF9B. As to the method:
as §1

For test [1], the target named is SARS-CoV-2 ORF9Bwu (the 73-codon ORF). As for the experimental part:
as §1

Another test has as its target SARS-CoV-2 S. As to the method:
as §1

The other results are listed elsewhere or left out. Interaction screen of human proteins with wild-type SARS-CoV-2 proteins by split-DHFR complementation in yeast, 1 µg/mL methotrexate. Value = fitness of the pair (three or more lineages) minus that of the viral protein without a human partner, on a scale set by negative (0) and fused positive (1) controls, mean of up to three cultures; higher = more likely to interact. Active = false discovery rate below 0.05 (one-sided t-test) in at least one culture. Nearly all pairs are not hits, and differences among them are mostly noise (correlation between cultures about 0.3); most hits were seen in one culture only. Human sequences are the Swiss-Prot entries looked up by gene name; the clone may be another isoform. NSP2 values were corrected by the authors for a growth advantage. Listed are human proteins with a hit and a random twelfth of the others.

B1: CASC4, Q6P4E1 (protein)
chain: MVGFGANRRAGRLPSLVLVVLLVVIVVLAFNYWSISSRHVLLQEEVAELQGQVQRTEVARGRLEKRNSDLLLLVDTHKKQIDQKEADYGRLSSRLQAREGLGKRCEDDKVKLQNNISYQMADIHHLKEQLAELRQEFLRQEDQLQDYRKNNTYLVKRLEYESFQCGQQMKELRAQHEENIKKLADQFLEEQKQETQKIQSNDGKELDINNQVVPKNIPKVAENVADKNEEPSSNHIPHGKEQIKRGGDAGMPGIEENDLAKVDDLPPALRKPPISVSQHESHQAISHLPTGQPLSPNMPPDSHINHNGNPGTSKQNPSSPLQRLIPGSNLDSEPRIQTDILKQATKDRVSDFHKLKQSRFFDENESPVDPQHGSKLADYNGDDGNVGEYEADKQAELAYNEEEDGDGGEEDVQDDEERELQMDPADYGKQHFNDVL
Turning to B1, the results for the yeast fitness gain with SARS-CoV-2 E, in the test with SARS-CoV-2 N and with SARS-CoV-2 NSP14 were inactive: 0.0399, inactive: 0.00512 and inactive: 0.114, respectively.

B2: ACO1, P21399 (protein)
chain: MSNPFAHLAEPLDPVQPGKKFFNLNKLEDSRYGRLPFSIRVLLEAAIRNCDEFLVKKQDIENILHWNVTQHKNIEVPFKPARVILQDFTGVPAVVDFAAMRDAVKKLGGDPEKINPVCPADLVIDHSIQVDFNRRADSLQKNQDLEFERNRERFEFLKWGSQAFHNMRIIPPGSGIIHQVNLEYLARVVFDQDGYYYPDSLVGTDSHTTMIDGLGILGWGVGGIEAEAVMLGQPISMVLPQVIGYRLMGKPHPLVTSTDIVLTITKHLRQVGVVGKFVEFFGPGVAQLSIADRATIANMCPEYGATAAFFPVDEVSITYLVQTGRDEEKLKYIKKYLQAVGMFRDFNDPSQDPDFTQVVELDLKTVVPCCSGPKRPQDKVAVSDMKKDFESCLGAKQGFKGFQVAPEHHNDHKTFIYDNTEFTLAHGSVVIAAITSCTNTSNPSVMLGAGLLAKKAVDAGLNVMPYIKTSLSPGSGVVTYYLQESGVMPYLSQLGFDVVGYGCMTCIGNSGPLPEPVVEAITQGDLVAVGVLSGNRNFEGRVHPNTRANYLASPPLVIAYAIAGTIRIDFEKEPLGVNAKGQQVFLKDIWPTRDEIQAVERQYVIPGMFKEVYQKIETVNESWNALATPSDKLFFWNSKSTYIKSPPFFENLTLDLQPPKSIVDAYVLLNLGDSVTTDHISPAGNIARNSPAARYLTNRGLTPREFNSYGSRRGNDAVMARGTFANIRLLNRFLNKQAPQTIHLPSGEILDVFDAAERYQQAGLPLIVLAGKEYGAGSSRDWAAKGPFLLGIKAVLAESYERIHRSNLVGMGVIPLEYLPGENADALGLTGQERYTIIIPENLKPQMKVQVKLDTGKTFQAVMRFDTDVELTYFLNGGILNYMIRKMAK
In the case of B2, the yeast fitness gain in the test with SARS-CoV-2 E was inactive: 0.109; in the test with SARS-CoV-2 M, inactive: 0.0221; in the test with SARS-CoV-2 NSP1, inactive: 0.0484; with SARS-CoV-2 NSP10, inactive: 0.0373; with SARS-CoV-2 NSP12 it was inactive: 0.112; in the test with SARS-CoV-2 NSP13, inactive: -0.0759. Also, the yeast fitness gain with SARS-CoV-2 NSP14 is inactive: -0.0565; with SARS-CoV-2 NSP15, inactive: 0.0908; with SARS-CoV-2 NSP16 it was inactive: 0.0712; with SARS-CoV-2 NSP2, active: 0.34; with SARS-CoV-2 NSP4, inactive: -0.205; with SARS-CoV-2 NSP5, inactive: 0.0508. Besides, the yeast fitness gain was inactive: -0.0751 in the test with SARS-CoV-2 NSP6; inactive: -0.217 with SARS-CoV-2 NSP7; inactive: -0.0817 with SARS-CoV-2 NSP8; inactive: 0.0963 in the test with SARS-CoV-2 NSP9; inactive: 0.0296 with SARS-CoV-2 ORF10; inactive: -0.0262 with SARS-CoV-2 ORF3A. Also, the yeast fitness gain in the test with SARS-CoV-2 ORF3B is inactive: 0.0393; with SARS-CoV-2 ORF6, inactive: -0.00687; with SARS-CoV-2 ORF7A, inactive: 0.0441; with SARS-CoV-2 ORF7B, inactive: -0.0397; with SARS-CoV-2 ORF8 it was inactive: 0.0376; with SARS-CoV-2 ORF9B it was inactive: 0.00316. The yeast fitness gain in [1] was inactive: -0.108; in the test with SARS-CoV-2 S, inactive: 0.00593.

B3: RNF7, Q9UBF6 (protein)
chain: MADVEDGEETCALASHSGSSGSKSGGDKMFSLKKWNAVAMWSWDVECDTCAICRVQVMDACLRCQAENKQEDCVVVWGECNHSFHNCCMSLWVKQNNRCPLCQQDWVVQRIGK
As for B3, the yeast fitness gain with SARS-CoV-2 E is inactive: 0.0373; in the test with SARS-CoV-2 M it was inactive: -0.0735; with SARS-CoV-2 N, inactive: -0.0176; with SARS-CoV-2 NSP1, inactive: 0.0137; with SARS-CoV-2 NSP10 it was inactive: 0.021; with SARS-CoV-2 NSP12, inactive: 0.0354. The yeast fitness gain was inactive: 0.0532 in the test with SARS-CoV-2 NSP13; inactive: 0.133 with SARS-CoV-2 NSP14; inactive: -0.107 with SARS-CoV-2 NSP15; inactive: 0.039 in the test with SARS-CoV-2 NSP16; inactive: -0.114 with SARS-CoV-2 NSP2; inactive: 0.0913 in the test with SARS-CoV-2 NSP4. Moreover, the yeast fitness gain was inactive: 0.0098 with SARS-CoV-2 NSP5; inactive: 0.0137 with SARS-CoV-2 NSP6; inactive: 0.0942 in the test with SARS-CoV-2 NSP7; inactive: 0.0692 in the test with SARS-CoV-2 NSP8; inactive: 0.0312 with SARS-CoV-2 NSP9; inactive: 0.0377 with SARS-CoV-2 ORF10. Further, the yeast fitness gain in the test with SARS-CoV-2 ORF3A was inactive: -0.197; with SARS-CoV-2 ORF3B, inactive: 0.0415; with SARS-CoV-2 ORF6, inactive: -0.0148; with SARS-CoV-2 ORF7A, inactive: 0.0923; with SARS-CoV-2 ORF7B, inactive: -3.1e-06; in the test with SARS-CoV-2 ORF8, inactive: 0.0206. The yeast fitness gain with SARS-CoV-2 ORF9B is inactive: -0.00405; in test [1] it was inactive: -0.0362; with SARS-CoV-2 S it was inactive: 0.0609.

B4: GCAT, O75600 (protein)
chain: MWPGNAWRAALFWVPRGRRAQSALAQLRGILEGELEGIRGAGTWKSERVITSRQGPHIRVDGVSGGILNFCANNYLGLSSHPEVIQAGLQALEEFGAGLSSVRFICGTQSIHKNLEAKIARFHQREDAILYPSCYDANAGLFEALLTPEDAVLSDELNHASIIDGIRLCKAHKYRYRHLDMADLEAKLQEAQKHRLRLVATDGAFSMDGDIAPLQEICCLASRYGALVFMDECHATGFLGPTGRGTDELLGVMDQVTIINSTLGKALGGASGGYTTGPGPLVSLLRQRARPYLFSNSLPPAVVGCASKALDLLMGSNTIVQSMAAKTQRFRSKMEAAGFTISGASHPICPVMLGDARLASRMADDMLKRGIFVIGFSYPVVPKGKARIRVQISAVHSEEDIDRCVEAFVEVGRLHGALP
Regarding B4, the yeast fitness gain in the test with SARS-CoV-2 E is inactive: 0.0495; with SARS-CoV-2 M, inactive: 0.0728; with SARS-CoV-2 NSP10 it was inactive: 0.0104; in the test with SARS-CoV-2 NSP12, inactive: 0.00557; with SARS-CoV-2 NSP13, inactive: -0.0538; with SARS-CoV-2 NSP14, inactive: -0.106. Moreover, the yeast fitness gain with SARS-CoV-2 NSP15 is inactive: -0.0931; in the test with SARS-CoV-2 NSP16 it was inactive: 0.00603; in the test with SARS-CoV-2 NSP2, inactive: -0.115; with SARS-CoV-2 NSP5, inactive: 0.0306; with SARS-CoV-2 NSP6, inactive: 0.043; in the test with SARS-CoV-2 NSP7 it was inactive: 0.0449. The yeast fitness gain with SARS-CoV-2 NSP8 is inactive: -0.07; in the test with SARS-CoV-2 ORF10, inactive: -0.0436; in the test with SARS-CoV-2 ORF3B, inactive: -0.00138; with SARS-CoV-2 ORF6, inactive: -0.0881; in the test with SARS-CoV-2 ORF7A it was inactive: -0.0324; in the test with SARS-CoV-2 ORF7B, inactive: 0.0294. The yeast fitness gain with SARS-CoV-2 ORF8 is inactive: 0.0203; with SARS-CoV-2 ORF9B, inactive: 0.0776; in test [1], inactive: 0.0775; with SARS-CoV-2 S it was inactive: -0.0255.
